The values that follow come from the supplement of paper PMC10681739.

± gives the standard deviation of the averaged measurements. Whole data set: some 4,000 sequences, median “arbitrary fluorescence units” near 830, cut for the highest 2% near 6,500. Most of the strongest results are missing from this list.
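Note: Full-length recombinant human RUNX1 bound to double-stranded DNA microarray spots, detected with an Alexa488-labelled secondary antibody after the anti-RUNX1 primary, read as scanned spot fluorescence.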

The test has as its target RUNX1 (UniProt Q01196). Put plainly: RUNX1 binding intensity (PBM fluorescence), RUNX1 alone (arbitrary fluorescence units); higher = stronger binding. The conditions noted are these: RUNX1 concentration 2 nM; ETS1 concentration 0 nM. How it is done: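 gcPBM on 36-bp genomic-derived probes (partner site mutated) containing one RUNX1 site and no ETS1 site. Recombinant human RUNX1 (2 nM) was incubated alone or with ETS1 (25 nM) and detected by anti-RUNX1 antibody fluorescence. Values are medians over 4 replicate spots (not normalised). The probes sit in constant array flanks that are not printed.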
Chain of UniProt Q01196 (Q01196 whole entry): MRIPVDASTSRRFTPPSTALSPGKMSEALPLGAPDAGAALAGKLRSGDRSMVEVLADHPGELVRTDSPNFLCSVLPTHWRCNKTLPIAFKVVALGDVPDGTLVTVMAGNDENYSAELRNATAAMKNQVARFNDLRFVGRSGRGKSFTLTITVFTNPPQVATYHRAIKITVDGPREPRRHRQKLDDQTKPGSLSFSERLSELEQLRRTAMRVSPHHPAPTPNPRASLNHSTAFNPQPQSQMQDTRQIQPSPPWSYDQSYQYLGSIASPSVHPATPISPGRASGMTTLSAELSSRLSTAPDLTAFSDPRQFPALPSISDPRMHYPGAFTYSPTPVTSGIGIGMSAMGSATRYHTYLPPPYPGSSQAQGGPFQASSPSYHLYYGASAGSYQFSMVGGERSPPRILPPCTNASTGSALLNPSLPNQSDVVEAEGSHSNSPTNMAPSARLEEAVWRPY
With AACCATTACAGGGTGTGAGATTCAAACCACTAACAG, the RUNX1 binding intensity was found to be 802. The same measure for AGCGTGCTCTGCGGTTCACTTCCAGCCAGCCCCTCC: 2530; for CCACTGCCGTTGTGGGTAACGCGGAGGTGGAAGAAC: 936; for GTTGTGCAAGCCACAGATGATATGGGGAACTAGTTT: 794. The same measure for GACCTGCGGTGGAGGGCGCGACCTTGGCTTGCTGGC: 1130. Next, AACGGACCCGAAAGGGGCAGGTCTTGTGGGCGGGTC: 693; TGCTGTCAAGCCACAGGCCTTTGCTGCTATCGTTTG: 816.

In turn, TGAAGAACCCGCAGCAGCTCCCATGATGAACTGGTT displayed an RUNX1 binding intensity of 760.

Turning to AATGCAGCATCTCCTCTCCAGTTCACCACAGGCCCC, the RUNX1 binding intensity is 1520.

Sequence GAGTTCGGCCTCGCCGTTTGTCCCTTGCGGTACCCG gave an RUNX1 binding intensity of 788. Next, ACAGCAAATGACTTAGGGAAAGTCCCAACCGCAATC: 1530; CCACTGCCTGAAGGGGAACTGTGGGGGTGCGCGAGT: 805; CCGGGACCGTTCCACTTCACCTCCCACCCACAGGTT: 1180. The same measure for AGCTGTTTGTGGTTGTCACACCTAGTTGCCTCTGTC: 1460.

For GGGCCCACACCCGGCGCGCGCAACCGCAGCCTACTG, the RUNX1 binding intensity came to 1880. Next, CCCGCTGTCACTTGCTGCTTCCCTCCCGCACACGTG: 1170; GTAGCCGATCTCCGATTGCCCGCCGCAGCTCCACCA: 919. The same measure for CCAGGAGCGTTGCGGCCGCGGCTTCGTCCTACGGCG: 849; for AGGAGGTGGTCAGGCGGAGGCCAGCATGTGTGCAAA: 818. Turning to GAGCGGGAGCAGCCAAGGCGGGCCCTCCCGCAGGCC, the RUNX1 binding intensity worked out at 686.

CGGAGAGCTCGCGGTAATTCCGTCTCCCCGCCCTTT registered an RUNX1 binding intensity of 823. The same measure for GACAAGCCATGTGGTTGCTGGCAGGCAATCTCAGTC: 1430. CTAAAGGCAGGGACCACAAACACTTGCTGTTTGTGT yielded an RUNX1 binding intensity of 714.

Consider GGACTCTGGCAGGGAGCTGTTTGTGGTTGTCACACC, for which the RUNX1 binding intensity amounted to 1020. Next, TCTCTTCAATGTGGTCCCCATCCAGCCACACCATCT: 1200; GAAGGAAAGTGGTTTTCATAGGATGGGAAGGGCGAA: 811; CTCTTGCGCTCAGTCATCCTCAGAGGTGGTAAGACT: 858. In the case of TATATGTGGCTTCTTATTGTGACTTACACTGCCTCA, the RUNX1 binding intensity stood at 878. The same measure for CAACTGAACGGACAGAACACAGCCACAAAACACGAG: 866 ± 53; for GCAACATGAAGGACCAAGTCCCCTCCCGCAATTTTA: 936; for CCGCCGACACACTTTCGGCGGCCACCACAGGGTATT: 834.

GCTCCCCGCAGCCAGCAGAGAAGGCCGAAGCAGTGG showed an RUNX1 binding intensity of 825. Next, CTGACAGTTACTTGCTGTCTTTGTGGGCGATTGTGA: 769. The same measure for TGGGATTCTCACCTCCGATCAGCGGTCCTGAACCCG: 646; for TCAAGAAAACAGTAAACTCTCAAAACCAAGTTCTGA: 736; for CTAAGTGCTCTTCATGCCAACCTGTGGGCGCCTGGC: 655. For the sequence CCAACCGCAGCGCTACTCCCGGCCGCTTGCGCCTGG, the RUNX1 binding intensity was 3670.

On to CTGGGGAGGTGTGACACTCAGAGAAACCACAAGGTG, for which the RUNX1 binding intensity was found to be 1100.

TGGCCTCTGCGGCCCTGGCCTTGACTGCCTTTCCTC: the RUNX1 binding intensity is 765. The same measure for TTTTCAACCGCCTTCCCTTCAGGCCTCCTTGTTTTT: 1940; for GGCTCCCTCGCGACCACCACGACTTGCCTCGTCCCT: 1140; for CAGAAGGTGGTTACGTACTAATCTCCTCTAGGGCTT: 847.

In the case of AGCTCCCCTCCCCTGAAACTTGACCACCTAGCCCAG, the RUNX1 binding intensity amounted to 796. The sequence CTTGGCAGTTCGGTCCACTTCAGCCGCAGCGTCCCT displayed an RUNX1 binding intensity of 795. Next, CCAGAGGGCGGCAGTGGGAGCTGCGACCGCGCTCCC: 772; TGCTGCCCAGCACCGCAAGGACACGGAGGCCCCGCC: 834; CTGAAACATGAAGCTGAGGGTGCGGTTGGGGGAGGA: 847.

Consider TGTAGTTTGGCGGTTTGGGGGAGGTGTTTGTTTTGT, for which the RUNX1 binding intensity was 933. The same measure for TGCAAAAAAACAGTAAACACCCAGCCGCAAATTATA: 933; for ACCAGCATGTAGTTTAGCTTAGGGGTGGTTATATCG: 727. Next, ATTGCTCCCGACGCTACTCCTGCCGGGTCACCACAG: 896.

With GACGCTGCGGTAGCGCTGCTCCTTGCGCCTCCGGCT, the RUNX1 binding intensity stood at 984. The sequence CAGCAGTAAGCCACAGAGGAAAACAGGCAGTGATAC showed an RUNX1 binding intensity of 813.

Consider GAAGCACCCACAGCCCTACCAGCCTCCGTAGAGAGA, for which the RUNX1 binding intensity turned out to be 1030.

On to ACCTTCCTTGCTGCCTCCCTTGTGGCTCCAGTCCAC, for which the RUNX1 binding intensity was found to be 1310. In turn, TTCGCCCTTCCCATCCTATGAAAACCACTTTCCTTC gave an RUNX1 binding intensity of 1580. Sequence AAAAGGCACCAGGCAATGACAGCACCGCAGCACGCC gave an RUNX1 binding intensity of 857.

Sequence GCGATGTTGCCGAGGCAACGCGCTGGTGTGGGTTAG gave an RUNX1 binding intensity of 705. The same measure for TCCTTTTTCGGTGGCGGCGCCGCGCGGTGAGGTTGT: 797; for CTGCGGTGATGAGGCGAAAGGGATCCCTGAAAAGCC: 724. Next, ATCAGCCTGACCATATGTTTCTTTAGGCCACAAAAC: 825. Next, GTCCACTGCGGCTTCAAAATCCGAATGCGCCGGTAT: 849; TCCACAATTCCCAAGGGTCTCTGCGGCTGCGCGGAG: 790. Regarding AGGGTGTGGAGGAGGTGGCTTACAACCACTTTGTCT, the RUNX1 binding intensity worked out at 748. Next, GGGGCAGTGGTCACAGGAGGATCTTGCTGGAGTCAT: 697; CCAGCCTCAACCGCCCTCACTTGCGCTGACCCGCCC: 1250; AAGCACCACATCGGCAGCTCATGCACTCCCGGCGCA: 763. The same measure for TTCGCGCCCACCCGCATCGCCAGTTTTCAGGCGCCA: 751. The same measure for AGAGGCTCCCTGAGGAACTGGTGTGGTCAGGGGAGC: 719; for CTGTGAGGTTGTGGTACTGGAAACTCCCTCCTAAAT: 964. For CTCAGACCCGCAGTGAGGTCTGACGTCATTTGCTGC, the RUNX1 binding intensity turned out to be 728. ATAAAGGACGTACAGTATTTAGAGAACAGTGGTTAA returned an RUNX1 binding intensity of 761.

The sequence TTCTTGTTTCATGTCAAGGGAGGCTCTGACCACCTC had an RUNX1 binding intensity of 861. Next, GAGACAGGCAATGTAGACTTGAGTCCTGTGGTAAAC: 683. In the case of GGGGCTGTGCTTCAGGCTGTTTGTGCGGTTTTGTGC, the RUNX1 binding intensity is 1510. Next, AGGTTTGTGGGTTCACTCTGGTATTTATTGCCTCTT: 1160.

ACAGAAGCGGTCACGTGCCTTGGCGCGCTCCCGCTC displayed an RUNX1 binding intensity of 735. The same measure for GGTTCTGTGGGAGTAGAGAGTGAGGCAATGAGTCAT: 678.

ACCCAGGGGACTTGCTGGCTCAGTGCCACAACCCAG: the RUNX1 binding intensity turned out to be 826. AAGTGAAGAGCTTCGGCCGGGAGACCGCGGCTGCAG yielded an RUNX1 binding intensity of 689. Next, AGCCGTGGTCAGCAGCAGCACGACTGCCGCCTCCGC: 770. Next, AGCCACACCACAGGGTTGTCACAGCAAATATGTGGC: 744. The same measure for GGCGGGACTTTCGGCGTCTCCCCTCGGCGGTTGCTT: 815; for CTCTTGCTGCCTGTCCGTGGCTGGTGTGGTTTGCGT: 873. Take CAGACCAGCCCAGGCAACAAGGAACCACAAAGCCAC: the RUNX1 binding intensity worked out at 971.

Regarding GATGCAGTGTGGTTTAACGGTTGCCTGACTTTGAAG, the RUNX1 binding intensity came to 1110 ± 110.

TGGTGGTTTGGTGCTTTGGTGGCAGCATGAAGGTAA came in with an RUNX1 binding intensity of 853.

TGCCCTGACTGCCTGGTCCTGTGGTCAAGGATGGGG gave an RUNX1 binding intensity of 871. Next, CTCCATCTCCCACAAGCCCTCCTTCACTTTCGGCTC: 1750. Next, CTAACAGCAGCAAGTGCTTGGTGGTTTAGCACCTCA: 698. Next, TGAATCATTCTGAGTTACCCGTTCTGTAACCGCCCC: 952; CTTGCCACACTGCCTCTTGTTTTGAACCACTATATT: 2040. GGGCAGGCCGTATGTGGGAGACCACAAAGCCCAAGG: the RUNX1 binding intensity was 787.

TGTTTTCGCTCTTTCTGGCCTTGCGGGCAGCCAGGA: the RUNX1 binding intensity was determined as 993. Next, TGGAAGAGCAAGGGGCGGAGCTGCTTTGCGGCCGGC: 655; TAGCCACGAACCTGAAACGTTAAACCACAGCTCCGT: 1060. Turning to ATGAACCACTGCCTGTGTGTTCCCACAGAGGTCAGG, the RUNX1 binding intensity turned out to be 741. With TGAAACCTCAGATATCTGGCCACCAGCAAATGCTGT, the RUNX1 binding intensity was determined as 820. As for TTCGGATTCTCGGAAGAACCCGCAGCAGCTCCCAGG, the RUNX1 binding intensity came to 778. The same measure for GGAGCATCCCGGGAGTCGTCACTGCGGCCGCTCCCG: 680; for ACACAGAAAGCAAAAGTTAAGCTATAAAACCCGCAA: 943; for CTGACTGTGGTAAACCGATCTGGCTTCAGGCAGTCC: 897. The same measure for GACAAAGACCGCAAAAAGATCCTTGAACGTAAAGCC: 3010; for AGTGGCGTGGTTTGGGGCTTTATAGCCGGGAGGAGC: 771.

As for CTGCACAAGGAGGCGCCTGTGTTGCTGTGGGCGGAG, the RUNX1 binding intensity is 719. Sequence GGCAACCTGAGCTGCCGTGTAAAACCACAGTGTGAC showed an RUNX1 binding intensity of 938.

The sequence CCTCGCCCCCTGCCGCACCCACCCCACCGCGCTCCG gave an RUNX1 binding intensity of 1540. The same measure for CCGATTCCTTAGAGGTTAAGTGGTGGTGGTTCAGTT: 809; for ATTTCCATTTACGGACTCTTCTCCTGCCCGCAGGGC: 1020.

In the case of ATTGGTTTCTGTGGTTGACGAGGCATCAGGTCTATG, the RUNX1 binding intensity was found to be 1980. The same measure for TTAAACACGGAGGTGCATCGGTTGTTGTGGTTATTC: 804; for CTGCAGTCACCCACAGCTCACTGCCGCTCTCCACTT: 1100; for GTGAGGTTTGTGGTTGGAATCCACTGCCTCTGGTTT: 1580.

As to CTGAGGCGCGCCGTAAGGGCTAGCGGTCCCAGCATA, the RUNX1 binding intensity came to 657. The same measure for GAAGGGGAGGTCCAGGAGCATGGGTGGTTTTTTTCC: 804; for GAGGGAGGTGAATCAGGCGCCGGGTAGTGGGTTGCT: 720. Next, TCAGCAAGACCACAAACCCACCTGAAAGAAGAAACT: 1470. On to GAGAGAGGCATGAAGTGTTGTGGTTATTGTTTGAGC, for which the RUNX1 binding intensity is 1040.

Turning to CCACTAGCAGCAAAACGGGCCGAGGGACCGCAAGCA, the RUNX1 binding intensity stood at 821. Next, ACCCTTGCTGGAGCATTGTCGCAGCAACCACAACAG: 942. Next, CGGGCTGGGATGAATTGATGGCTGACCACAGAGGAG: 960; GAACCCCAGAAACCGCGAGCCGTTGCCTTTCTCTTC: 3010.

With TGTCTGAGGTTTCTCTGTGAACATGAAGCTGAGAAC, the RUNX1 binding intensity worked out at 790. Next, GTGCTGCGGTGCTAGAGCGCGGCGCGACCGTACGCT: 735. Next, TATCACATGCTGCTGGACAAAAAGGCCAAACCACCT: 873.
